Certain results were filed several times, with different values. They are shown here; other results are not. An entry can have further records. Values that stand side by side are repeated measurements (runs, samples, wells, individuals or studies).
Key:
Format in all cases: toxicity, cell-based
Fibroblast = assay: Multiplex assay against human fibroblast; conditions: 10 µM, compound concentration 10 uM
In short: (§1)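 Phenotypes for tubulin, mitochondrial mass and membrane permeability are expressed as per cents of healthy-nucleus cells. Cells were stained live at seeding with Hoechst33342, BioTracker Green Microtubule Cytoskeleton Dye, MitoTracker Red and Annexin V Alexa Fluor 680, then imaged after compound addition on a CQ1 microscope at 37°C and 5% CO2. Machine-learning gating in CellPathfinder separated Hoechst high-intensity objects from normal cells, divided normal cells by nuclear state (healthy, pyknosed, fragmented) and divided pyknosed cells into mitotic or apoptotic.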

HEK-293T = assay: Multiplex assay against HEK293T; conditions: human, 10 µM, compound concentration 10 uM; in short: as §1;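 on Population Tubulin-Different-Phenotype (%): share of the cells with healthy nuclei that show this phenotype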
U2OS = assay: Multiplex assay against U2OS; conditions: human, 10 µM, compound concentration 10 uM; in short: as §1

Cn1nc(C(=O)NCc2ccc(C(=O)O)cc2)cc1-c1ccc2[nH]ccc2c1 [BI 4395]
Population Membrane Permeable-Phenotype (%) (Fibroblast; 12 h, replicate 1): 10% and 3% | Population Mitotic Cells (%) (Fibroblast; 12 h, replicate 2): 57% and 0% | Population Pyknosed Nuclei (%) (Fibroblast; 12 h, replicate 2): 17% and 5% | Population Tubulin-Different-Phenotype (%) (Fibroblast; 12 h, replicate 2): 33% and 0% | Population Apoptotic (%) (Fibroblast; 24 h, replicate 2): 0% and 100% | Population Apoptotic (%) (HEK-293T; 24 h, replicate 2): 1% and 8% | Population Apoptotic (%) (U2OS; 12 h, replicate 2): 50% and 0%

COc1cc(N2CCC(N3CCN(C)CC3)CC2)ccc1Nc1ncnc(Nc2ccccc2S(=O)(=O)C(C)C)n1 [ASP-3026]
Population Tubulin-Different-Phenotype (%) (Fibroblast; 12 h, replicate 1): 50% and 7% | Population Tubulin-Different-Phenotype (%) (Fibroblast; 12 h, replicate 2): 66% and 18% | Population Tubulin-Different-Phenotype (%) (Fibroblast; 24 h, replicate 1): 44% and 4% | Population Mitochondria Different-Phenotype (%) (Fibroblast; 24 h, replicate 2): 42% and 0% | Population Mitotic Cells (%) (Fibroblast; 24 h, replicate 2): 50% and 0% | Population Tubulin-Different-Phenotype (%) (Fibroblast; 24 h, replicate 2): 57% and 13%

CCN(CC)S(=O)(=O)Nc1cccc(-c2ccc3c(NC(=O)C4CC4)n[nH]c3c2)c1
Population Mitochondria Different-Phenotype (%) (Fibroblast; 12 h, replicate 2): 20% and 5% | Population Apoptotic (%) (Fibroblast; 24 h, replicate 2): 14% and 75% | Population Mitochondria Different-Phenotype (%) (Fibroblast; 24 h, replicate 2): 5% and 28% | Population Mitotic Cells (%) (Fibroblast; 24 h, replicate 2): 85% and 25% | Population Tubulin-Different-Phenotype (%) (Fibroblast; 24 h, replicate 2): 10% and 57% | Population Fragmented Nuclei (%) (HEK-293T; 12 h, replicate 2): 3% and 10% | Population Mitochondria Different-Phenotype (%) (HEK-293T; 12 h, replicate 2): 26% and 6% | Population Pyknosed Nuclei (%) (HEK-293T; 12 h, replicate 2): 20% and 4% | Population Mitochondria Different-Phenotype (%) (HEK-293T; 24 h, replicate 1): 11% and 1% | Population Pyknosed Nuclei (%) (HEK-293T; 24 h, replicate 1): 43% and 8% | Population Tubulin-Different-Phenotype (%) (HEK-293T; 24 h, replicate 1): 8% and 1% | Population Fragmented Nuclei (%) (HEK-293T; 24 h, replicate 2): 30% and 3% | Population Pyknosed Nuclei (%) (HEK-293T; 24 h, replicate 2): 2% and 25% | Population Tubulin-Different-Phenotype (%) (HEK-293T; 24 h, replicate 2): 4% and 31% | Total Cell Count (HEK-293T; 24 h, replicate 2): 3004 and 923 | Population Membrane Permeable-Phenotype (%) (U2OS; 12 h, replicate 2): 19% and 5% | Population Mitochondria Different-Phenotype (%) (U2OS; 12 h, replicate 2): 25% and 6% | Population Fragmented Nuclei (%) (U2OS; 24 h, replicate 1): 8% and 1% | Population Membrane Permeable-Phenotype (%) (U2OS; 24 h, replicate 1): 19% and 4% | Population Tubulin-Different-Phenotype (%) (U2OS; 24 h, replicate 1): 8% and 25% | Population Pyknosed Nuclei (%) (U2OS; 24 h, replicate 2): 17% and 5%

Cl.O=C(c1ccc(Nc2nccc(-c3cc4ccccc4s3)n2)cc1)N1CCC(N2CCCC2)CC1
Population Membrane Permeable-Phenotype (%) (Fibroblast; 12 h, replicate 1): 46% and 13% | Population Healthy Nuclei (%) (Fibroblast; 24 h, replicate 1): 9% and 2% | Population Healthy Nuclei (%) (Fibroblast; 24 h, replicate 2): 3% and 16% | Population Mitochondria Different-Phenotype (%) (Fibroblast; 24 h, replicate 2): 0% and 100% | Total Cell Count (HEK-293T; 12 h, replicate 1): 826 and 177 | Population Apoptotic (%) (HEK-293T; 12 h, replicate 2): 24% and 88% | Population Healthy Nuclei (%) (HEK-293T; 12 h, replicate 2): 38% and 2% | Population Mitotic Cells (%) (HEK-293T; 12 h, replicate 2): 75% and 11% | Total Cell Count (HEK-293T; 12 h, replicate 2): 1190 and 173 | Population Mitochondria Different-Phenotype (%) (HEK-293T; 24 h, replicate 1): 0% and 65% | Population Tubulin-Different-Phenotype (%) (HEK-293T; 24 h, replicate 1): 0% and 78% | Total Cell Count (HEK-293T; 24 h, replicate 1): 170 and 783 | Population Healthy Nuclei (%) (HEK-293T; 24 h, replicate 2): 13% and 4% | Population Mitotic Cells (%) (HEK-293T; 24 h, replicate 2): 41% and 0% | Total Cell Count (HEK-293T; 24 h, replicate 2): 953 and 169 | Population Hoechst High Intensity Objects (%) (U2OS; 12 h, replicate 2): 21% and 6% | Population Mitotic Cells (%) (U2OS; 12 h, replicate 2): 6% and 29%

Source: ChEMBL document CHEMBL4689842, “EUbOPEN Chemogenomics Library wave 1” (2021)
